This test deals with T1, CD4 D1D2 protein, 23 kD (aa 1-183) (human, UniProt P01730 in part).
T1 construct: also called sCD4 (D1D2); sCD4 D1D2; source: gift from Dr. E. Berger
The test can be described thus: SPR; Biacore 3000; soluble ⍺4β7 passed over immobilised ligand; HBS pH 7.4, 1 mM MnCl2, 0.005% Tween-20, 25°C, 25 μl/min. The conditions noted are these: both partners purified. For orientation: In SPR one partner is held on a chip, and binding of the other changes the refractive index at the surface.

B1: soluble recombinant ⍺4β7 (receptor)
chain 1: not shown
chain 2: ELDAKIPSTGDATEWRNPHLSMLGSCQPAPSCQKCILSHPSCAWCKQLNFTASGEAEARRCARREELLARGCPLEELEEPRGQQEVLQDQPLSQGARGEGATQLAPQRVRVTLRPGEPQQLQVRFLRAEGYPVDLYYLMDLSYSMKDDLERVRQLGHALLVRLQEVTHSVRIGFGSFVDKTVLPFVSTVPSKLRHPCPTRLERCQSPFSFHHVLSLTGDAQAFEREVGRQSVSGNLDSPEGGFDAILQAALCQEQIGWRNVSRLLVFTSDDTFHTAGDGKLGGIFMPSDGHCHLDSNGLYSRSTEFDYPSVGQVAQALSAANIQPIFAVTSAALPVYQELSKLIPKSAVGELSEDSSNVVQLIMDAYNSLSSTVTLEHSSLPPGVHISYESQCEGPEKREGKAEDRGQCNHVRINQTVTFWVSLQATHCLPEPHLLRLRALGFSEELIVELHTLCDCNCSDTQPQAPHCSDGQGHLQCGVCSCAPGRLGRLCECSVAELSSPDLESGCRAPNGTGPLCSGKGHCQCGRCSCSGQSSGHLCECDDASCERHEGILCGGFGRCQCGVCHCHANRTGRACECSGDMDSCISPEGGLCSGHGRCKCNRCQCLDGYYGALCDQCPGCKTPCERHRDCAECGAFRTGPLATNCSTACAHTNVTLALAPILDDGWCKERTLDNQLFFFLVEDDARGTVVLRVRPQEKGADH
notes: also called soluble α4β7
Broadly, the Kd is the concentration at which binding is half-saturated. Low readings indicate higher affinity, high ones lower affinity. B1 displayed a Kd of 3.57 nM.

These data come from publication PMC10732398 (PLOS Pathogens, 2023).
